# Some of the results follow.
# Tested on: PfSIP2 AP2 domain 1 (GST-tagged)
# Assay: gcPBM binding intensity (ln(normalized median fluorescence intensity)); higher = stronger DNA binding
# Outline: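 Each value is the highest Masliner-normalised natural-log median intensity across replicate spots of either orientation of a probe. The probes were primer-extended double-stranded 36-bp intergenic genomic sequences on an Agilent 4 × 180k array, alongside negative controls, exposed for 1 h to GST-tagged P. falciparum DNA-binding domains expressed in E. coli. Bound protein was picked up with Alexa488 anti-GST antibody and scanned at 488 nm.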
row,Sequence,gcPBM binding intensity (ln)
1,TGTGAAAATTATGGGGCATGCAATACTTTAAAAATA [TGCATGCA_site653],7.02
2,CAAATGTAGAAAATGTGTACATAAAAAAAAAAAAAA [XGTACX_site8276],7.16
3,AGTCAATTTTGTGTGTCAACATTTATATAAAGAATG [TGCATGCA_negctrl_site400],7.09
4,TTTTGGCTGATCAGATTTAACAAAAAAAAAAAAAAA [CACACA_negctrl_site671],7.45
5,CCTTCAATTTACATAACACACATTTAACCATAATAA [CACACA_site2394],7.33
6,CAAATATATATTTTCTGTACAAATACAATTAATACT [XGTACX_site2694],6.95
7,TTCCAAAATTGCATTTGTACCCAAAAAATGTATACG [XGTACX_site7680],6.94
8,GTAAGTTTGAATACACGTACAAATTTATTAAAGTCC [XGTACX_site6722],7.25
9,AGATATTAAAACGTTACACACATTTATATATCTTCT [CACACA_site908],6.75
10,ATCAGTCGGCAGGACAGTACACAGTAGCCAGGAAAT [XGTACX_site2003],6.75
11,GCTTTTTATTTTTACCGTACATTATATATGTATATA [XGTACX_site808],7.76
12,ATATTATTAATTTATAGTACTCATTTTTTTTTTTTT [XGTACX_site3536],6.97
13,ATATATATATTTGTGTGTACATATTAATTTGTATGA [XGTACX_site4047],8.58
14,AACGCGAACAATTTATAGATAACTTTTAATTATTAT [GTGCAC_negctrl_site179],6.76
15,AATATATATATAGGATGTACACATAATTCAAATACA [XGTACX_site6368],7.31
16,ATTTAATACAAATACACACACAAATATATACATATA [CACACA_site3747],7.05
17,TATATATATATAAACTGTACTATTTTATGTTAAAAG [XGTACX_site3630],9.05
18,ATGGTATATCCAAATAAACACACGTAAATACATAAA [CACACA_site1682],6.93
19,ATACATTTTTGTAAAAGTACATATACATGCCCCCTT [XGTACX_site1367],8.44
20,TCGAACGTATCATGTGTACACACAAATTGTTTTTTT [CACACA_site8623],7.2
21,CCTTGCCCCAGGAGTTCACACACATAATAGATTGTC [CACACA_site8138],7.17
22,GTATAAAAGTAACTAGTGCATTACATATGAATAAAA,8.48
23,AGATATTTTTCTTAAGTACACACTAATTAGAAACTA [CACACA_site7897],6.93

row,Sequence,gcPBM binding intensity (ln)
1,TTTTTATTTTAAAAGAATAATTATCTAATATCTATA [CACACA_negctrl_site371],6.77
2,TTACCTCTTTGAAATATACACACTAAACATATCAAC [CACACA_site2455],7.16
3,GACACCTGCATGAAAGTGCAAAATAGAAAAGGAACA [GTGCAC_site9593],10
4,AAATACCTTATATATACACACTATGTTTTTCTTTTT [CACACA_site4792],6.96
5,AACACGCACAGACACACACACAAAAATGATTAAAAA [CACACA_site7195],7.47
6,AAGGAATAATAATAAATGTAAAGAAAAGCATACTGA [CACACA_negctrl_site36],6.9
7,AAAAGAAGAAACAAAACACACACAGTCTTCTTTTCT [CACACA_site9015],6.86
8,TTTATGAGGTTACTATGTACGCAAATTATGTAATAA [XGTACX_site325],7.25
9,ATTTGTGTTATTCGAAGTACGGATCATTTGAAATAA [XGTACX_site2510],7.03
10,TCAAATTATTAAAATACACACATATTATATATATAT [CACACA_site2530],8.73
11,AGCAATTTGGGGTGTACACACACCTTATTTAAATTA [CACACA_site1157],6.97
12,TATATCTCTTTATTCACACATACGTTTTAAAATAAT [CACACA_site5542],7.26
13,TAATAAAACATATATACACACATTAGATATACATAT [CACACA_site6897],7.03
14,TTCCCAACATGATATTGTACATTTAATTATAATTAA [XGTACX_site7029],7.31
15,TATAAATAAAGACACACACACACACCGTATAATTAC [CACACA_site7829],7
16,TATATTAAAAAAAAATGTACACATATATATATATAT [XGTACX_site4524],9.46
17,TATATGTTTGAATATACACACAACATATATATATAT [CACACA_site4066],9.49
18,ATATTATTAATTTGTTGTACAGTTCTTTATTTATAG [XGTACX_site7932],7.34
19,CCAGGAAAAATTTATTGTACATATATTTTTATGCTC [XGTACX_site7154],7.01
20,TATTTTTGGTTATGTGTGCACTATGAACAACAAAAT,10.5
21,TATTTTTAACAGTGCACACATAACTTAATTATATGT [CACACA_site2194],10.6
22,GTGCATAAATCATACACACACACATATATATATATA [CACACA_site2423],9.48
